# Experimental data reported in PubChem BioAssay AID2546 (National Center for Advancing Translational Sciences (NCATS), 2010).
# The campaign covered roughly 310,000 compounds. About 11,000 (3.5%) were called active. The inconclusive results got no clear call from the source; some entries with a clear call stand among them for comparison. Calls come from the whole dose curve; as a rule, active = well fitted inhibition curve with a large enough effect; inconclusive = small, poorly fitted or top-dose-only effect, or effect the other way; inactive = flat fitted curve, though single readings scatter. No potency is given beside an inconclusive call; the fits are too rough.
# Assay: VP16 counterscreen qHTS for inhibitors of ROR gamma transcriptional activity;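 note: Gal4-VP16 expression switched on by copper sulfate through the metallothionein promoter; nearly all actives have a fitted effect of over 50% in size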
# Conditions: Drosophila S2 Gal4-VP16 UAS-luciferase, luminescence, 20 h; series mostly up to 53.6 µM
# Potency is the fitted concentration of half-maximal effect; tags give direction and shape of the fitted curve.
row,Compound,Potency
1,CC1CCN(S(=O)(=O)c2cc(Br)cc(C(=O)NC3=NCCS3)c2)CC1,"inconclusive [inhibitor, single point]"
2,CC(=O)c1nn(-c2ccc(Br)cc2)cc1C(=O)c1ccccc1,"inconclusive [inhibitor, partial curve, poor fit]"
3,Cc1ccc2oc(-c3ccc(C)c(NC(=S)NC(=O)c4cccs4)c3)nc2c1,active: 7.08 µM
4,Cc1[nH]n2c(=O)c3c(nc2c1-c1cccc2ccccc12)CCC3,"inconclusive [inhibitor, single point]"
5,CCCCC(=O)Nc1cccc(NC(=O)c2cccc(Br)c2)c1,inactive
6,CCOC(=O)[C@@]12C[C@@H]1/C(=N/O)c1ccccc1O2,inactive
7,C=CCn1c(-c2cccnc2Cl)nc2ccccc21,inactive
8,O=C(Cc1cccc(C(F)(F)F)c1)Nc1cccc(S(=O)(=O)N2CCCC2)c1,"inconclusive [activator, partial curve, poor fit]"
9,CCCOc1ccc(C2C(C(=O)c3cc4ccccc4o3)=C(O)C(=O)N2c2cc(C)on2)cc1OC (centres undefined),"inconclusive [inhibitor, single point]"
10,CCCOc1ccc(C(=O)N(Cc2cccs2)C2CCS(=O)(=O)C2)cc1 (centres undefined),"inconclusive [inhibitor, single point]"
11,COc1ccc(NCc2nc3ccccc3n2CCOc2ccc(C)cc2)cc1,"inconclusive [inhibitor, single point]"
12,COc1ccc(C(=O)/C=C/C(=O)N(Cc2ccc3c(c2)OCO3)C(C(=O)NC2CCCCC2)c2ccncc2)c(O)c1 (centres undefined),"inconclusive [activator, single point]"
13,C/C(Cn1cnc([N+](=O)[O-])n1)=N\NC(=O)c1cccnc1,inactive
14,S=c1[nH]nc(-c2ccncc2)n1/N=C/c1ccccc1,"inconclusive [inhibitor, single point]"
15,CCOc1ncccc1C(=O)NNC(=O)c1ccccc1-n1cccc1,"inconclusive [inhibitor, single point]"
16,NC(=O)COc1ccc(C(=O)/C=C2/C(=O)Nc3ccccc32)cc1,"inconclusive [inhibitor, single point]"
17,COc1ccc(-c2sc(Nc3ccccc3)n[n+]2-c2ccc(F)cc2)c(C)c1C,inactive
18,O=C(NC1=NCCS1)C1CC(=O)N(c2ccc(Cl)cc2)C1 (centres undefined),"inconclusive [inhibitor, single point]"
19,CC(=O)Oc1c(C)c(C)c2c(c1C)CC[C@@](C)(CCC[C@H](C)CCC[C@H](C)CCCC(C)C)O2,inactive
20,Cc1ccccc1NC(=O)c1ccc2nc(N3CCOCC3)sc2c1,"inconclusive [inhibitor, full curve]"
21,Cc1ccc(Cl)cc1N1CCN(C(=S)NCCc2ccccc2)CC1,"inconclusive [inhibitor, single point]"
22,O=C(Nc1cccc(-c2cccc(F)c2)c1)C1CCN(Cc2ccco2)CC1,"inconclusive [inhibitor, full curve, poor fit]"
23,CCC(=O)NCCc1nc2ccccc2n1CC,inactive

row,Compound,Potency
1,CCOc1ccccc1NC(=O)CSc1nnc(Cc2cccn2C)n1-c1ccc(F)cc1,"inconclusive [inhibitor, single point]"
2,CCOC(=O)c1c(NC(=O)C2c3ccccc3Oc3ccccc32)sc(C(C)=O)c1C,"inconclusive [inhibitor, single point]"
3,CC(C)(C)c1ccc(-c2noc(-c3ccno3)n2)cc1,"inconclusive [inhibitor, single point]"
4,O=c1cc(N2CCCCC2)c(-c2ccccc2)nn1Cc1ccc(Cl)cc1Cl,inactive
5,CC(=O)N1CCCc2cc(S(=O)(=O)NCCC3=CCCCC3)ccc21,"inconclusive [inhibitor, single point]"
6,COc1ccc(-c2nc(CSCC(=O)NCc3ccco3)c(C)o2)cc1,"inconclusive [inhibitor, partial curve]"
7,N#C/C(=C\c1ccc(OCc2ccc(C(=O)O)cc2)cc1)C(=O)N1CCOCC1,"inconclusive [inhibitor, single point]"
8,CCC1=NN2C(=N)/C(=C\c3ccc(OCCOc4ccccc4OC)cc3)C(=O)N=C2S1,"inconclusive [inhibitor, single point]"
9,Cc1cc(-c2cccs2)c(C#N)c(=S)[nH]1,"inconclusive [inhibitor, single point]"
10,COc1ccc(S(=O)(=O)N(C(=O)c2ccco2)c2cc3sc(=O)oc3c3ccccc23)cc1,"inconclusive [inhibitor, single point]"
11,Cc1ccccc1CSc1nnc(-c2ccco2)n1Cc1ccco1,"inconclusive [inhibitor, single point]"
12,CCn1nc2cc(C(=O)NCCc3cccs3)ccc2c1OC,"inconclusive [inhibitor, single point]"
13,O=C(Nc1oc2ccccc2c(=O)c1-c1ccc(Cl)cc1)c1ccco1,"inconclusive [inhibitor, single point]"
14,COc1ccc(OC)c(C(=O)CSc2nnc(-c3cccs3)o2)c1,active: 15.8 µM
15,C=CCc1ccc(OCCOc2ccc(/C=N/n3cnnc3)cc2OCC)c(OC)c1,"inconclusive [inhibitor, partial curve]"
16,Cc1cc2ncc(-c3cccs3)nc2cc1C,"inconclusive [inhibitor, single point]"
17,Cc1noc(C)c1-c1cncnc1NCc1ccccc1,inactive
18,CCCCCC(=O)N[C@@H](c1ccccc1)[C@@H](O)C(=O)O[C@H]1C[C@@]2(O)[C@@H](OC(=O)c3ccccc3)C3[C@](C)(C(=O)[C@H](OC(C)=O)C(=C1C)C2(C)C)[C@@H](O)C[C@H]1OC[C@@]31OC(C)=O (some centres undefined),"inconclusive [inhibitor, partial curve]"
19,CCOC(=O)c1c(C)[nH]c(C)c1S(=O)(=O)N(C)CC(=O)Nc1cccc(C)n1,"inconclusive [inhibitor, partial curve, poor fit]"
20,COCc1ccccc1Cn1cnc2c1c(=O)n(C)c(=O)n2C,"inconclusive [inhibitor, single point]"
21,COc1ccccc1N(C)S(=O)(=O)c1ccc(Cl)c(C(=O)NNC(=O)c2ccccc2O)c1,"inconclusive [activator, single point]"
22,O=C(O)CSc1nc(-c2ccccc2)nc2c1CCCC2,inactive
23,COc1ccc(NS(=O)(=O)c2ccc3ccccc3c2)c2ncccc12,active: 1.12 µM

row,Compound,Potency
1,COc1ccc(-c2cc(-c3ccc(OC)c(OC)c3)n[nH]2)c(O)c1,"inconclusive [inhibitor, partial curve, poor fit]"
2,Nc1ccccc1SCc1cn2ccccc2n1,"inconclusive [inhibitor, single point]"
3,CC(=O)Nc1ccc(S(=O)(=O)NCCSCc2ccccc2Cl)cc1,"inconclusive [inhibitor, single point]"
4,O=C(NNC1=NCCC1)c1ccc(Br)cc1,active: 6.31 µM
5,Oc1cccc(/C=N/N2CCN(C3c4ccccc4-c4ccccc43)CC2)c1,inactive
6,CCc1nc(Nc2cccc(O)c2)c2oc3ccccc3c2n1,"inconclusive [inhibitor, single point]"
7,COc1ccc(C2N(C(=O)c3ccccc3)CCN2C(=O)c2ccccc2)cc1,inactive
8,O=C(NNc1c(Cl)cncc1Cl)c1sccc1Cl,inactive
9,O=C(NC(=S)NC1CCCC1)c1ccccc1Br,"inconclusive [inhibitor, single point]"
10,COc1cc(C)ccc1OCCOCCN(C)Cc1ccccc1,inactive
11,CC(=O)Nc1ccc(NC(=O)Cn2c(=O)n(-c3ccccc3)c(=O)c3oc4ccccc4c32)cc1,inactive
12,O=C(c1cnccn1)N1CCC2(CC1)CN(C(c1ccccc1)c1ccccc1)C2,inactive
13,Cc1cc(C(=O)Nc2ccc3c(c2)OCCO3)ccc1[N+](=O)[O-],"inconclusive [inhibitor, single point]"
14,O=S(=O)(c1cc(Cl)ccc1Cl)N1CCCC1,"inconclusive [inhibitor, single point]"
15,CS(=O)(=O)c1ccc2nc(NC(=O)c3ccco3)sc2c1,"inconclusive [inhibitor, partial curve, poor fit]"
16,O=C(Nc1nnc2n1CCS2)c1ccc(Br)o1,active: 7.08 µM
17,Cc1cc(O)c(C(C)(C)C)cc1Sc1cc(C(C)(C)C)c(O)cc1C,"inconclusive [inhibitor, single point]"
18,CC(C)c1ccc(NC(=S)NCc2cccs2)cc1,"inconclusive [inhibitor, single point]"
19,COc1cccc(/C=N/NC(=S)NCCc2ccccc2)c1,"inconclusive [inhibitor, single point]"
20,COc1ccc(N2CCN(c3nc4c(C)cccn4c(=O)c3/C=C(\C#N)C(N)=O)CC2)cc1,inactive
21,CC1Cc2ccccc2N1CC(=O)NCc1ccccc1Cl (centres undefined),"inconclusive [inhibitor, partial curve, poor fit]"
22,Cc1c(CCC(=O)N[C@@H](CC(C)C)C(=O)O)c(=O)oc2cc3oc4c(c3cc12)CCCC4,"inconclusive [inhibitor, partial curve]"
23,COc1ccc(OCCSc2ncn[nH]2)cc1,"inconclusive [inhibitor, partial curve]"
